# This is one part of the list.
# B1: Gal 2 (Canis lupus) (protein)
# chain: MSGKFEVMNMDMKLGGTLKIKGKIAGDADGFVINLGQGSDKLNLHFNPRFHESVIVCNSRNWGQEQRDKHMCFSPGSEVKFTVTFENDGFKVKLPDGHQLTFPNRLGHSHLSYLGVQGGLKVSSFKIE
# Assays:
# Test in all cases: glycan array binding signal (z-score within array); higher = stronger binding
# Settings in all cases: glycan notation: IUPAC condensed, linker removed
# [1] = molecular target: Gal(b1-3)GlcNAc(a1-6)Gal(b1-4)GlcNAc
# How it was run: (§1)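 Columns mapping to the same glycan were averaged after glycan names were converted to IUPAC-condensed notation. The data come from 3228 arrays in the Consortium for Functional Glycomics database, limited to those with an available protein sequence. Binding is reported as a within-array Z-score averaged across arrays of one protein sequence and across linkers.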
# [2] = molecular target: Gal(b1-3)GlcNAc(b1-2)Man(a1-3)[Gal(b1-3)GlcNAc(b1-2)Man(a1-6)]Man(b1-4)GlcNAc(b1-4)GlcNAc
# How it was run: as §1
# [3] = molecular target: Gal(b1-3)GlcNAc(b1-2)Man(a1-3)[Gal(b1-3)GlcNAc(b1-2)Man(a1-6)]Man(b1-4)GlcNAc(b1-4)[Fuc(a1-6)]GlcNAc
# How it was run: as §1
# [4] = molecular target: Gal(b1-3)GlcNAc(b1-2)[Gal(b1-3)GlcNAc(b1-6)]Man(a1-6)[Gal(b1-3)GlcNAc(b1-2)Man(a1-3)]Man(b1-4)GlcNAc(b1-4)GlcNAc
# How it was run: as §1
# [5] = molecular target: Gal(b1-3)GlcNAc(b1-3)Gal(b1-3)GlcNAc
# How it was run: as §1
# [6] = molecular target: Gal(b1-3)GlcNAc(b1-3)Gal(b1-4)Glc
# How it was run: as §1
# [7] = molecular target: Gal(b1-3)GlcNAc(b1-3)Gal(b1-4)GlcNAc
# How it was run: as §1
# [8] = molecular target: Gal(b1-3)GlcNAc(b1-3)Gal(b1-4)GlcNAc(b1-6)[Gal(b1-3)GlcNAc(b1-3)]Gal(b1-4)Glc
# How it was run: as §1
# [9] = molecular target: Gal(b1-3)GlcNAc(b1-3)Gal(b1-4)[Fuc(a1-3)]GlcNAc(b1-6)[Gal(b1-3)GlcNAc(b1-3)]Gal(b1-4)Glc
# How it was run: as §1
# [10] = molecular target: Gal(b1-3)GlcNAc(b1-3)GalNAc
# How it was run: as §1
# [11] = molecular target: Gal(b1-3)GlcNAc(b1-6)Gal(b1-4)GlcNAc
# How it was run: as §1
# [12] = molecular target: Gal(b1-3)[Fuc(a1-4)]GlcNAc
# How it was run: as §1
# [13] = molecular target: Gal(b1-3)[Fuc(a1-4)]GlcNAc(b1-2)Man(a1-3)[Gal(b1-3)[Fuc(a1-4)]GlcNAc(b1-2)Man(a1-6)]Man(b1-4)GlcNAc(b1-4)GlcNAc
# How it was run: as §1
# [14] = molecular target: Gal(b1-3)[Fuc(a1-4)]GlcNAc(b1-2)Man(a1-3)[Gal(b1-3)[Fuc(a1-4)]GlcNAc(b1-2)Man(a1-6)]Man(b1-4)GlcNAc(b1-4)[Fuc(a1-6)]GlcNAc
# How it was run: as §1
# [15] = molecular target: Gal(b1-3)[Fuc(a1-4)]GlcNAc(b1-3)Gal(b1-3)[Fuc(a1-4)]GlcNAc
# How it was run: as §1
# [16] = molecular target: Gal(b1-3)[Fuc(a1-4)]GlcNAc(b1-3)Gal(b1-4)GlcNAc
# How it was run: as §1
# [17] = molecular target: Gal(b1-3)[Fuc(a1-4)]GlcNAc(b1-3)Gal(b1-4)[Fuc(a1-3)]GlcNAc
# How it was run: as §1
# [18] = molecular target: Gal(b1-3)[GlcNAc(b1-6)]GalNAc
# How it was run: as §1
# [19] = molecular target: Gal(b1-3)[Neu5Ac(a2-6)]GalNAc
# How it was run: as §1
# [20] = molecular target: Gal(b1-3)[Neu5Ac(a2-6)]GlcNAc(b1-6)Gal(b1-4)Glc
# How it was run: as §1
# [21] = molecular target: Gal(b1-3)[Neu5Ac(b2-6)]GalNAc
# How it was run: as §1
# Gal(b1-4)Gal = molecular target: Gal(b1-4)Gal
# How it was run: as §1
# [22] = molecular target: Gal(b1-4)GalNAc(a1-3)[Fuc(a1-2)]Gal(b1-4)GlcNAc
# How it was run: as §1
# [23] = molecular target: Gal(b1-4)GalNAc(b1-3)[Fuc(a1-2)]Gal(b1-4)GlcNAc
# How it was run: as §1
# Gal(b1-4)Glc = molecular target: Gal(b1-4)Glc
# How it was run: as §1
# Gal(b1-4)Glc6S = molecular target: Gal(b1-4)Glc6S
# How it was run: as §1
# Gal(b1-4)GlcNAc = molecular target: Gal(b1-4)GlcNAc
# How it was run: as §1
# [24] = molecular target: Gal(b1-4)GlcNAc(a1-6)Gal(b1-4)GlcNAc
# How it was run: as §1
# [25] = molecular target: Gal(b1-4)GlcNAc(b1-2)Man(a1-3)Man(b1-4)GlcNAc(b1-4)GlcNAc
# How it was run: as §1
# [26] = molecular target: Gal(b1-4)GlcNAc(b1-2)Man(a1-3)[Gal(b1-4)GlcNAc(b1-2)Man(a1-6)]Man(b1-4)GlcNAc(b1-4)GlcNAc
# How it was run: as §1
# [27] = molecular target: Gal(b1-4)GlcNAc(b1-2)Man(a1-3)[Gal(b1-4)GlcNAc(b1-2)Man(a1-6)]Man(b1-4)GlcNAc(b1-4)[Fuc(a1-6)]GlcNAc
# How it was run: as §1
# [28] = molecular target: Gal(b1-4)GlcNAc(b1-2)Man(a1-3)[Gal(b1-4)GlcNAc(b1-2)][GlcNAc(b1-4)]Man(b1-4)GlcNAc(b1-4)GlcNAc
# How it was run: as §1
# [29] = molecular target: Gal(b1-4)GlcNAc(b1-2)Man(a1-3)[GlcNAc(b1-2)Man(a1-6)]Man(b1-4)GlcNAc(b1-4)GlcNAc
# How it was run: as §1
# [30] = molecular target: Gal(b1-4)GlcNAc(b1-2)Man(a1-3)[Man(a1-6)]Man(b1-4)GlcNAc(b1-4)GlcNAc
# How it was run: as §1
# [31] = molecular target: Gal(b1-4)GlcNAc(b1-2)Man(a1-6)Man(b1-4)GlcNAc(b1-4)GlcNAc
# How it was run: as §1
# [32] = molecular target: Gal(b1-4)GlcNAc(b1-2)Man(a1-6)[GlcNAc(b1-2)Man(a1-3)]Man(b1-4)GlcNAc(b1-4)GlcNAc
# How it was run: as §1
# [33] = molecular target: Gal(b1-4)GlcNAc(b1-2)Man(a1-6)[Man(a1-3)]Man(b1-4)GlcNAc(b1-4)GlcNAc
# How it was run: as §1
# [34] = molecular target: Gal(b1-4)GlcNAc(b1-2)[Gal(b1-4)GlcNAc(b1-4)]Man(a1-3)[Gal(b1-4)GlcNAc(b1-2)Man(a1-6)]Man(b1-4)GlcNAc(b1-4)GlcNAc
# How it was run: as §1
binder,measurement,setting,value
B1,glycan array binding signal (z-score),[1],-0.21
same,glycan array binding signal (z-score),[2],0.14
same,glycan array binding signal (z-score),[3],0.051
same,glycan array binding signal (z-score),[4],0.045
same,glycan array binding signal (z-score),[5],-0.188
same,glycan array binding signal (z-score),[6],-0.105
same,glycan array binding signal (z-score),[7],-0.254
same,glycan array binding signal (z-score),[8],-0.509
same,glycan array binding signal (z-score),[9],-0.071
same,glycan array binding signal (z-score),[10],-0.063
same,glycan array binding signal (z-score),[11],-0.071
same,glycan array binding signal (z-score),[12],-0.205
same,glycan array binding signal (z-score),[13],0.511
same,glycan array binding signal (z-score),[14],-0.279
same,glycan array binding signal (z-score),[15],-0.204
same,glycan array binding signal (z-score),[16],0.099
same,glycan array binding signal (z-score),[17],-0.275
same,glycan array binding signal (z-score),[18],0.161
same,glycan array binding signal (z-score),[19],-0.103
same,glycan array binding signal (z-score),[20],-0.068
same,glycan array binding signal (z-score),[21],0.042
same,glycan array binding signal (z-score),Gal(b1-4)Gal,0.144
same,glycan array binding signal (z-score),[22],0.36
same,glycan array binding signal (z-score),[23],-0.051
same,glycan array binding signal (z-score),Gal(b1-4)Glc,-0.07
same,glycan array binding signal (z-score),Gal(b1-4)Glc6S,-0.011
same,glycan array binding signal (z-score),Gal(b1-4)GlcNAc,0.104
same,glycan array binding signal (z-score),[24],-0.369
same,glycan array binding signal (z-score),[25],0.077
same,glycan array binding signal (z-score),[26],-0.042
same,glycan array binding signal (z-score),[27],0.632
same,glycan array binding signal (z-score),[28],-0.265
same,glycan array binding signal (z-score),[29],-0.206
same,glycan array binding signal (z-score),[30],-0.281
same,glycan array binding signal (z-score),[31],-0.186
same,glycan array binding signal (z-score),[32],-0.286
same,glycan array binding signal (z-score),[33],-0.225
same,glycan array binding signal (z-score),[34],0.169

# Reference: the supplement of paper PMC8728848
